Experimental findings from the supplement of paper PMC11417369 are described below.

The other results are listed elsewhere or left out.

The test deals with PfHDP1 homeodomain (GST-tagged). In words: gcPBM binding intensity (ln(normalized median fluorescence intensity)); higher = stronger DNA binding. The procedure, abridged: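 DNA-binding domains from P. falciparum, fused to GST and produced in E. coli, were put on an Agilent 4 × 180k double-stranded probe array for 1 h in 1× PBS holding 1% milk, 0.2 mg/ml BSA, 0.5% salmon testes DNA and 0.03% Triton X-100. Probes were primer-extended, 36 bp long and drawn from intergenic genomic regions, with negative controls included. After Alexa488 anti-GST antibody detection and a 488 nm scan, binding intensity was set as the highest Masliner-normalised natural-log median intensity across replicate spots of either probe orientation.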
Consider “TTTTCCTCTTAAAATATACACACTGATTTAAGAAAA [CACACA_site3301]”, for which the “gcPBM binding intensity (ln)” value came to 6.42.

As to “ATATTACACAGATATGCACACATTGTAGTTATTTAT [CACACA_site5454]”, the “gcPBM binding intensity (ln)” value turned out to be 9.65.

With “AAAAAGGAAATTTACACACACATATAACATACATTA [CACACA_site7534]”, the “gcPBM binding intensity (ln)” value came to 6.71.

For “AATTATAATAAATAACGTACAAAAAATAAATTATTT [XGTACX_site3627]”, the “gcPBM binding intensity (ln)” value was determined as 6.39.

As to “ATAAAAATAAAATGGACACACATATATACATATTTG [CACACA_site3277]”, the “gcPBM binding intensity (ln)” value came out at 6.28.

As to “TTTTTTTTTGATATTTGTACTTAAGTAAATATTATA [XGTACX_site3843]”, the “gcPBM binding intensity (ln)” value was 6.23.

As to “ATAAGCGAATATATATCACACACAAAAAAATCAGAC [CACACA_site8657]”, the “gcPBM binding intensity (ln)” value worked out at 7.59.

“TATATATTCATGTGTACACACAAAAAAAAATAAAGT [CACACA_site2207]”: the “gcPBM binding intensity (ln)” value is 7.6.

Turning to “TCCGTATAATTTTGCACACGAATATAAATTTGATAA [CACACA_site136]”, the “gcPBM binding intensity (ln)” value came to 10.9.

As to “ACATATCGGGTGCATTAACACACATTTATTTGAATA [CACACA_site8736]”, the “gcPBM binding intensity (ln)” value is 9.3.

Turning to “ATTATATCACTGTGTTGTACTTCTTATATAAAAATA [XGTACX_site2333]”, the “gcPBM binding intensity (ln)” value amounted to 7.11.

With “CGTTTATTAAACTTGACACACACACCCCCACATATA [CACACA_site8151]”, the “gcPBM binding intensity (ln)” value was 7.43.

For the sequence “AATCGATAACAATGTAGTACCAGAAAAATAAATATT [XGTACX_site8501]”, the “gcPBM binding intensity (ln)” value was 6.65.

Regarding “TATATATATATATATGCATGCCATATGATATATATA [TGCATGCA_site109]”, the “gcPBM binding intensity (ln)” value was 9.34.

As to “TTTAATTCTTATATTTGTACAGATTCATAATTAAAT [XGTACX_site7465]”, the “gcPBM binding intensity (ln)” value was found to be 6.38.

Consider “TATCTTTTATAAGTGACACACATAAATATTTAAATT [CACACA_site833]”, for which the “gcPBM binding intensity (ln)” value is 6.56.

Take “ATATTAGGGTCATGAACACACAAAAAAAAAAAAAAA [CACACA_site937]”: the “gcPBM binding intensity (ln)” value was 6.29.

In the case of “GCTATCATATCATGTTGTACACAACCTCAAAATGAA [XGTACX_site8757]”, the “gcPBM binding intensity (ln)” value is 6.67.

“TCATATTTACAAAAAGGTATTAATAAATAAAATATT [CACACA_negctrl_site259]”: the “gcPBM binding intensity (ln)” value turned out to be 6.56.

On to “AATAAGTGTTGATTCTTAAAATGACCATATAATAAT [TGCATGCA_negctrl_site221]”, for which the “gcPBM binding intensity (ln)” value came to 6.48.

Turning to “TGTATAACCTGTGTTACACACATTAGAATTTATATA [CACACA_site6393]”, the “gcPBM binding intensity (ln)” value amounted to 6.15.

In the case of “TTCTCCATCAGATACTGTACATAATATATATAATAT [XGTACX_site8827]”, the “gcPBM binding intensity (ln)” value came out at 6.86.

For the sequence “TACATAAACTTTATAACACACACTTATATATATATA [CACACA_site1106]”, the “gcPBM binding intensity (ln)” value is 8.93.

As for “TATATAAAGATATATACACACAAAAAAAAAAAAAAA [CACACA_site6778]”, the “gcPBM binding intensity (ln)” value amounted to 6.32.

As for “GCATCATTTATTTGCACACCTATTATATACTTTTTA [CACACA_site2098]”, the “gcPBM binding intensity (ln)” value was found to be 10.7.

For the sequence “TATAAAAATATATATATATATATATATATATATATA [TGCATGCA_negctrl_site541]”, the “gcPBM binding intensity (ln)” value was found to be 9.32.

Regarding “TTGATATAAAAAGAAAGTACTTTATAGATGTTTATT [XGTACX_site8144]”, the “gcPBM binding intensity (ln)” value amounted to 6.39.

Regarding “AATAATAACAAATGAACACACATATATATGAGCAAA [CACACA_site2121]”, the “gcPBM binding intensity (ln)” value was 8.62.

As for “TTAGTATATTTTTCCTGTACGTACTCAGATACAAAT [XGTACX_site7397]”, the “gcPBM binding intensity (ln)” value amounted to 6.74.

“TTAAATAATTTTTAATGTACATTAAATTTATTATTA [XGTACX_site261]”: the “gcPBM binding intensity (ln)” value was 6.07.

On to “TACACATTATGTATCATACACACAAATAAATATATA [CACACA_site608]”, for which the “gcPBM binding intensity (ln)” value is 6.66.

Consider “TTTTACTCTTAAAATAATAAAAAATATTCACATTTA [CACACA_negctrl_site1508]”, for which the “gcPBM binding intensity (ln)” value was determined as 5.71.

With “AAAAAGAATATAAGTAGTACAGTGCATATAATAATT [XGTACX_site617]”, the “gcPBM binding intensity (ln)” value worked out at 9.75.

“AAGAGAAATGGGCACACACACACATATTATATATAT [CACACA_site1531]”: the “gcPBM binding intensity (ln)” value came to 7.18.

Consider “TATATATACATATACGCATGTAAATTCAAAAGTAAA [TGCATGCA_site956]”, for which the “gcPBM binding intensity (ln)” value amounted to 6.56.

As to “TATAATTTTTTTAATACACACAAATATTTATATATA [CACACA_site3042]”, the “gcPBM binding intensity (ln)” value is 6.56.

In the case of “AATTAATGTTTTGTCACACAGTATGATTATATATAT [CACACA_site6143]”, the “gcPBM binding intensity (ln)” value stood at 6.63.

For “ACATATTATAGGAATACACACAAAAACTTATCGGTA [CACACA_site7587]”, the “gcPBM binding intensity (ln)” value is 6.56.

Consider ATTATATATATTGGAGTGCATATATAGTATTTTATA, for which the “gcPBM binding intensity (ln)” value turned out to be 8.26.

As for “ATAGAAATCTATTGTGATTATTATTTTATTTTTAGT [XGTACX_negctrl_site605]”, the “gcPBM binding intensity (ln)” value is 6.07.

“TGAAGATAAAAATATGCACACATATATATATATATA [CACACA_site8027]”: the “gcPBM binding intensity (ln)” value is 9.72.

“CATAAAAATGAACATACACACATATATTTATTTATA [CACACA_site7222]”: the “gcPBM binding intensity (ln)” value came to 6.31.

As to “TTCTACGTTTTAAAAAAAAAAAAAAAAAAAAAAAAA [XGTACX_negctrl_site6]”, the “gcPBM binding intensity (ln)” value was 6.14.

As to “ATACATATCTATAATACACACATAAATGTAACATTT [CACACA_site7621]”, the “gcPBM binding intensity (ln)” value turned out to be 7.04.

On to “AATGTATTATGTAATAGTACGTATAATATCTTATTT [XGTACX_site3]”, for which the “gcPBM binding intensity (ln)” value stood at 6.24.

Regarding “CAACACTTTCAAAAATGTACGTACAAATGTATTTTA [XGTACX_site6713]”, the “gcPBM binding intensity (ln)” value turned out to be 6.51.

In the case of “AGTTTCCATATGAGGTGTACATATATAATTTATTAT [XGTACX_site2369]”, the “gcPBM binding intensity (ln)” value is 6.74.

As for “ACAAAATAAAGACACACACACAAACACAAAAAAATA [CACACA_site7568]”, the “gcPBM binding intensity (ln)” value stood at 6.9.

Consider “ATTAATGATTTTTGTTGTACATTATTAATTTACATT [XGTACX_site544]”, for which the “gcPBM binding intensity (ln)” value was found to be 6.47.

“ATGCGTATACTAAGAACACACAAGTTACTTGGTGTT [CACACA_site1625]”: the “gcPBM binding intensity (ln)” value worked out at 6.11.

With “CATACATACATACATACACACATACATATGTATTTA [CACACA_site5384]”, the “gcPBM binding intensity (ln)” value turned out to be 7.57.

With “TATTTTATATTTCATTTGTTATTTTTCTTGGTTCTA [CACACA_negctrl_site33]”, the “gcPBM binding intensity (ln)” value is 6.49.

As to “TCAAGAATTTTAAAGAGTACATAAAACAATAATATA [XGTACX_site3923]”, the “gcPBM binding intensity (ln)” value is 6.36.

Turning to “CAAAAATAACGAGTCAAACACACATATATATATATA [CACACA_site2038]”, the “gcPBM binding intensity (ln)” value was found to be 9.19.

Turning to “AAAGGGATAACACCAAAAAAAATAAAAATAAAAATA [GTGCAC_negctrl_site680]”, the “gcPBM binding intensity (ln)” value came to 6.55.

For the sequence “TTGCAAATATATGGTTGTACTCAAAAAAAAAAAAAA [XGTACX_site6975]”, the “gcPBM binding intensity (ln)” value turned out to be 6.47.
